# The whole screen tested about 110,000 compounds, of which about 230 (0.21%) showed an effect of 50% or more. This is one part of the list.
# Molecular target: DPAP1 (Plasmodium falciparum, UniProt Q8IIJ9)
# Experiment: primary screen, percent inhibition; read by cleavage of a fluorogenic dipeptide substrate; higher = more effect of the substance
# Design: species or system P. falciparum D10 trophozoite lysates; single well
# 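Further: 30 min substrate incubation versus DMSO and 10 µM JCP410 controls.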
# Sequence of DPAP1 (Q8IIJ9 whole entry, looked up): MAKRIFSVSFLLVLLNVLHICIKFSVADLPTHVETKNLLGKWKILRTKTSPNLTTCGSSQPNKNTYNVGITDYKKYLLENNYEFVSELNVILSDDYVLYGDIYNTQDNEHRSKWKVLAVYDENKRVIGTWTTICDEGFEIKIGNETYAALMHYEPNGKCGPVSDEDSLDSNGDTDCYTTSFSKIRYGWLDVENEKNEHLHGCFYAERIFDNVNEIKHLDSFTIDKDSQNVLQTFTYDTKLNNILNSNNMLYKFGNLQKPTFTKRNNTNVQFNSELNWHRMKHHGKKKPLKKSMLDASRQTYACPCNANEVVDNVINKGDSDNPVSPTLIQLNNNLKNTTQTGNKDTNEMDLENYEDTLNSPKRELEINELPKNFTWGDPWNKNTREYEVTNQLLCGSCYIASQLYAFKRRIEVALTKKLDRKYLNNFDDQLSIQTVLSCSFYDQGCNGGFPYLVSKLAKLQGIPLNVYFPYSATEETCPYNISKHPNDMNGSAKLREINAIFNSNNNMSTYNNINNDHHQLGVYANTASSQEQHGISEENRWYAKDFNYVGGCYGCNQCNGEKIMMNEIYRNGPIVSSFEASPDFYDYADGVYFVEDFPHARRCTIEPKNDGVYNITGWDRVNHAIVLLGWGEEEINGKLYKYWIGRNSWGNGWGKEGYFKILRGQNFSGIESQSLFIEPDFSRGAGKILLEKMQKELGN
row,SMILES,% Inhibition @ 10 uM
1,CC1=C(C(=O)Nc2ccccc2)C(c2ccccc2)n2c(s/c(=C/c3cnn(C)c3C)c2=O)=N1 (stereo not shown),-3.03%
2,Cc1nnc2c(N3CCOCC3)nc3ccccc3n12,6.83%
3,CC1CCN(C(=O)c2ccc(C(C)(C)C)cc2)CC1,-1.56%
4,Cc1ccc(CNC(=O)Cn2ncc3c4ccccc4n(Cc4ccccc4F)c3c2=O)cc1,4.95%
5,CC(C)OCCCNC(=O)c1ccc(CS(=O)(=O)c2ccc(Cl)cc2)o1,-2.72%
6,COCCCNC(=O)c1nnc(Cc2cccc(F)c2)o1,-7.32%
7,COc1ccc(C2(C(=O)Nc3ccccc3OC)CCOCC2)cc1,-2.34%
8,COc1ccc(C(=O)CCc2ccccc2O)c(OC)c1,-4.01%
9,COc1ccc(/C=C(\NC(=O)c2ccccc2)C(=O)N2CC3CC(C2)c2cccc(=O)n2C3)cc1OC (stereo not shown),17%
10,Cc1ccc(S(=O)(=O)/N=C2\C=C3N(CCO)CCOC3(O)c3ccccc32)c(C)c1 (stereo not shown),-5.38%
11,CC[C@@H](C)[C@H](NC(=O)c1cccc(NC(N)=O)c1)C(=O)N[C@@H](CCc1ccccc1)C(=O)CO,-2.55%
12,O=C(CCc1ccccc1)N1CCN(C(c2ccccc2)c2ccccc2)CC1,3.05%
13,Cc1nn(-c2cccc(Cl)c2)c2nc(-c3ccncc3)cc(C(F)(F)F)c12,3.88%
14,N#CCNC(=O)[C@H](CC1CCCCC1)NC(=O)OCc1ccccc1,-3.49%
15,CCCn1c2ccccc2c2cnn(CC(=O)N(CCN(C)C)Cc3ccccc3)c(=O)c21,3.72%
16,COc1cc(C2Nc3ccccc3N=C3CC(c4cccs4)CC(O)=C32)cc(OC)c1OC (stereo not shown),-2.45%
17,CC(=O)Nc1ccc(NC(=O)CSCc2ccccc2Br)cc1,2.67%
18,Cc1cc(C)c(S(=O)(=O)N(C)CC(=O)N2CCCC2)c(C)c1,4.44%
19,Cc1ccc(OCC(=O)O/N=C(\N)Cc2ccc(Cl)cc2)cc1,-4.93%
20,C=CCn1c(SCCC(C)C)nc2c1c(=O)[nH]c(=O)n2C,-6.38%
21,O=C(NC(=O)C(F)(F)F)Nc1cccc2ccccc12,-7.32%
22,Cc1c(C)n(Cc2ccc(F)cc2)c2ccc(C(=O)NC3CC3)cc12,4.44%
23,Cc1ccc(C(=O)N(Cc2ccc(C)o2)C2CCS(=O)(=O)C2)cc1 (stereo not shown),-1.11%
24,COC(=O)c1c(NC(=O)c2nc(S(C)(=O)=O)ncc2Cl)sc2c1CCCC2,0.569%
25,COc1cccc(-c2ccc(C(=O)N[C@@H](CC(C)C)C(=O)NCC#N)o2)c1,-4.93%

row,SMILES,% Inhibition @ 10 uM
1,Cc1ccc(C(C)C)c(OCC(=O)Nc2ccc(S(=O)(=O)N3CCCC3)cc2)c1,-0.48%
2,Brc1ccc(CN2CCN(C/C=C/c3ccccc3)CC2)s1,-0.969%
3,CN1CCN(c2ncnc3onc(-c4cccc(Cl)c4)c23)CC1,1.15%
4,COc1ccc(CNC(=O)Cc2c(C)c3cc(Cl)c(O)cc3oc2=O)cc1OC,5.68%
5,COCc1cc(C)nc(SCC(=O)N2CCOCC2)c1C#N,2.48%
6,O=C(C1CCN(S(=O)(=O)c2cc(Cl)ccc2Cl)CC1)N1CCCC1,-3.49%
7,COc1ccc(C(=O)NCc2nc(-c3ccc(C)cc3)no2)c(OC)c1,-4.82%
8,Cc1ccc(C2CC(C(F)F)n3ncc(C(=O)NCc4ccco4)c3N2)cc1 (stereo not shown),-0.28%
9,Clc1ccc(N2CCCC3CCCCC32)nn1 (stereo not shown),-0.764%
10,Cn1c(SCC(=O)NCc2ccccc2)nnc1-c1ccc(C(C)(C)C)cc1,0.0719%
11,CC1(C)Cc2ccccc2C(/C=C(\O)c2ccccc2[N+](=O)[O-])=N1,-3.27%
12,O=C(Nc1cc(F)ccc1F)c1cccc(OC(F)F)c1,-1.6%
13,CC(C)NCC(=O)C12CC3CC(CC(C3)C1)C2,-0.711%
14,Cc1oncc1C(=O)Nc1ccc(C(C)(C)C)cc1,-3.45%
15,O=C(N/C(=C\c1ccccc1)C(=O)N1CCN(c2ccccc2)CC1)c1ccccc1,4.09%
16,O=C(Nc1ccc(CN2CCOCC2)cc1)c1ccc(Cl)cc1Cl,-5.27%
17,Cc1cc(C(=O)NCCCN2CCCC(C)C2)c2c(C)nn(-c3cccc(Cl)c3C)c2n1 (stereo not shown),4.52%
18,CCc1cc2c(cc3c(=O)n(CC(=O)NCc4ccc(OC)c(OC)c4)ncn32)s1,3.29%
19,O=C(NC1(C(F)(F)F)N=C(c2ccccc2)NC1=O)C1CCCCC1 (stereo not shown),3.21%
20,CCC(C)N(CCNC(=O)Cn1c(=O)c2cccn2c2cccnc21)C1CCCCC1 (stereo not shown),-2.1%
21,CCOc1c(NC2CCCCC2)c(=O)c1=O,1.2%
22,Cc1ccccc1Cc1c(C)nc2nc(SCC(=O)NCC3COc4ccccc4O3)nn2c1C (stereo not shown),-3.48%
23,Cc1nc2ccn(Cc3cccnc3)c(=O)c2cc1C(=O)NCCC(C)C,0.234%
24,CCOc1ccc2sc(NS(=O)(=O)c3ccc(OC)c(OC)c3)nc2c1,-1.94%
